Experimental data taken from the supplement of paper PMC4967469.

Experiments:
Assay in all cases: Viability of human cancer cell lines after 72 h of drug (GDSC screen)
[1] = compound: O=C(NCCCNc1nc(Nc2cccc(NC(=O)N3CCCC3)c2)ncc1I)c1cccs1 [BX-795]; settings: top dose 5 µM; top dose inferred
Experimental: (§1)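 Human cancer cell lines in 384-well plates, medium with 10% serum, drug for 72 h over a 256-fold dose range (nine 2-fold or five 4-fold steps up to the top dose). Adherent lines were fixed and stained with the nucleic acid dye Syto60, suspension lines read with resazurin; signal relative to control wells, capped at 0 and 100%. One two-parameter sigmoid per drug and line, fitted in a mixed model over all curves with the slope shared within a line.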

[2] = compound: Cc1cccc(-c2[nH]c(C(C)(C)C)nc2-c2ccc3c(c2)OCO3)n1 [SB-505124]; settings: top dose 10 µM; top dose inferred
Experimental: as §1

[3] = compound: CC1=C(/C=C/C(C)=C/C=C/C(C)=C/C(=O)O)C(C)(C)CCC1 [Tretinoin]; settings: top dose 10 µM; top dose inferred
Experimental: as §1

[4] = compound: COc1cc2c(NC3CCN(C(C)C)CC3)nc(C3CCCCC3)nc2cc1OCCCN1CCCC1 [UNC0638]
Experimental: as §1

[5] = compound: CCn1c(-c2nonc2N)nc2c(C#CC(C)(C)O)ncc(OC[C@H]3CCCNC3)c21 [GSK690693]; settings: top dose 10.24 µM; top dose inferred
Experimental: as §1

[6] = compound: Oc1cccc(-c2nc(N3CCOCC3)c3oc4ncccc4c3n2)c1 [PI-103]; settings: top dose 10.24 µM
Experimental: as §1

[7] = top dose 20 µM, screen: GDSC drug entry 1236, top dose inferred
[8] = top dose 40 µM, screen: GDSC drug entry 245

## SCC90 (head and neck, adherent)
[1]
  AUC: 0.956
  IC50: > 5 µM
[2]
  AUC: 0.978
  IC50: > 10 µM
[3]
  AUC: 0.981
  IC50: > 10 µM
[4]; [7]
  AUC: 0.886
  IC50: > 20 µM

## SK-GT-2 (stomach, adherent)
[1]
  AUC: 0.86
  IC50: 4.56 µM
[2]
  AUC: 0.973
  IC50: > 10 µM
[3]
  AUC: 0.984
  IC50: > 10 µM
[4]; [7]
  AUC: 0.791
  IC50: 9.48 µM

## SK-MEL-31 (melanoma, adherent)
[1]
  AUC: 0.956
  IC50: > 5 µM
[2]
  AUC: 0.983
  IC50: > 10 µM
[3]
  AUC: 0.983
  IC50: > 10 µM
[4]; [7]
  AUC: 0.921
  IC50: > 20 µM

## STS-0421 (soft tissue, adherent)
[1]
  AUC: 0.811
  IC50: 3.23 µM
[2]
  AUC: 0.942
  IC50: > 10 µM
[3]
  AUC: 0.936
  IC50: > 10 µM
[4]; [7]
  AUC: 0.762
  IC50: 8.28 µM

## SUP-B8 (B-cell leukaemia, suspension)
[1]
  AUC: 0.805
  IC50: 2.5 µM
[2]
  AUC: 0.982
  IC50: > 10 µM
[3]
  AUC: 0.968
  IC50: > 10 µM
[4]; [7]
  AUC: 0.87
  IC50: 18.3 µM

## T-T (oesophagus, adherent)
[5]
  AUC: 0.987
  IC50: > 10.2 µM
[1]
  AUC: 0.844
  IC50: 3.56 µM
[2]
  AUC: 0.882
  IC50: > 10 µM
[3]
  AUC: 0.935
  IC50: > 10 µM
[4]; [7]
  AUC: 0.985
  IC50: > 20 µM
[4]; [8]
  AUC: 0.748
  IC50: 12.8 µM

## TC-YIK (cervix, suspension)
[1]
  AUC: 0.803
  IC50: 2.1 µM
[2]
  AUC: 0.733
  IC50: 2.58 µM
[3]
  AUC: 0.977
  IC50: > 10 µM
[4]; [7]
  AUC: 0.703
  IC50: 4.25 µM

## U-266 (myeloma, semi-adherent)
[1]
  AUC: 0.932
  IC50: > 5 µM
[2]
  AUC: 0.969
  IC50: > 10 µM
[3]
  AUC: 0.701
  IC50: 2.83 µM
[4]; [7]
  AUC: 0.805
  IC50: 14.7 µM

## UMC-11 (lung carcinoid, adherent)
[5]
  AUC: 0.987
  IC50: > 10.2 µM
[6]
  AUC: 0.62
  IC50: 1.32 µM
[2]
  AUC: 0.989
  IC50: > 10 µM
[3]
  AUC: 0.957
  IC50: > 10 µM
[4]; [7]
  AUC: 0.897
  IC50: > 20 µM
[4]; [8]
  AUC: 0.738
  IC50: 10.9 µM

## VMRC-LCD (lung adenocarcinoma, adherent)
[1]
  AUC: 0.778
  IC50: 1.69 µM
[2]
  AUC: 0.992
  IC50: > 10 µM
[3]
  AUC: 0.99
  IC50: > 10 µM
[4]; [7]
  AUC: 0.873
  IC50: 14 µM

## VMRC-MELG (melanoma, adherent)
[5]
  AUC: 0.989
  IC50: > 10.2 µM
[6]
  AUC: 0.972
  IC50: > 10.2 µM
[2]
  AUC: 0.988
  IC50: > 10 µM
[3]
  AUC: 0.984
  IC50: > 10 µM
[4]; [7]
  AUC: 0.858
  IC50: 17.7 µM
[4]; [8]
  AUC: 0.874
  IC50: > 40 µM

## WM278 (melanoma, adherent)
[5]
  AUC: 0.981
  IC50: > 10.2 µM
[6]
  AUC: 0.98
  IC50: > 10.2 µM
[2]
  AUC: 0.979
  IC50: > 10 µM
[3]
  AUC: 0.975
  IC50: > 10 µM
[4]; [7]
  AUC: 0.706
  IC50: 5.17 µM
[4]; [8]
  AUC: 0.677
  IC50: 8.32 µM

## ZR-75-30 (breast, adherent)
[1]
  AUC: 0.983
  IC50: > 5 µM
[2]
  AUC: 0.981
  IC50: > 10 µM
[3]
  AUC: 0.977
  IC50: > 10 µM
[4]; [7]
  AUC: 0.889
  IC50: > 20 µM

The IC50 comes from the fitted curve, where viability falls to half of the control; fits outside the tested doses are given as limits. AUC sums up the same curve from the lowest dose to the 256-fold higher top dose; values near 1 show little effect. For part of these data: Where the top dose is marked as inferred, it comes from the curve model; the source does not state it. For part of these data: Drugs with an entry number were screened twice under separate entries, and the two screens often disagree.
